From the RNAGym collection of RNA variant scans (doi:10.1093/nar/gkz1192)
Read counts are not given, so values of variants with three or more changes are uncertain.

B1: CPEB3 Ribozyme (parent)
chain: UAACAGGGGGCCACAGCAGAAGCGUUCACGUCGCAGCCCCUGUCAGAUUCUGGUGAAUCUGCGAAUUCUGCUGUAUAUCUC

Variants of: B1
Assay: self-cleavage, relative activity (ratio to wild type); higher = more cleavage; in vitro, sequencing
Outline: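 Barcoded CPEB3 ribozyme mutants, produced by rounds of error-prone PCR, self-cleaved while being transcribed with T7 RNA polymerase for 5 hours at 37°C and during a subsequent 15 min DNase I step before EDTA was added. Sequencing of template-switched cDNA on Illumina gave cleaved and total reads, and DNA sequencing assigned barcodes to variants. Each variant's relative activity is its cleaved/total read fraction divided by the unmutated ribozyme's fraction, averaged across three batches. A variant needed a minimum of 5 reads.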

Variant	self-cleavage
A13G A20G U25C C59G A64U	0.18
A13C A35G U49C A56G U67C A77G	0.07
A13C A15G A20G U49C	0.05
A13G G19C A47G A56G U66C	0.07
A13G G33C U78C	0.13
A13G A57G U72C	0.66
A13C U25C A35G U67C	0.16
A13G A45G A75C A77G	0.84
A13G A35G C71G	0.18
A13G A15G U25A	0.62
A13G A18U C29A U31C A35U	0.08
A13G A21G U80C	0.35
A13G U26C C27A C81U	0.13
A13G A21G U31A U48A U72C	0.43
A13G G30A U31C	0.25
A13G U41A G63A U67A U72A	0.05
A13G U26C U67A	0.07
A13G A28G U74C	0.47
A13G U26C U54C	0.63
A13G A28U A35G	0.39
A13G A20G U54C G61C	0.23

Variant	self-cleavage
C12U A35U U41A U60C U72A	0.07
A13C A21G U41A U51C A65G U66C	0.17
A13C U26A A35G U43C U58A	0.06
A13G A28U U31C A35U A65G U67C U69A	0.16
A13C G22C U48C C62U	0.25
A13G A28G U43C U72C	0.47
C12U A28G G33A U54A U69A	0.07
A13G A21U U25C A56G U72C	0.18
A13G G53A A65U A77G	0.19
A13G C39G U67C	0.23
A13G A21G A28G A35G U78C	0.4
A13C U31C U58C	0.24
A13G A18U U31C U80C	0.3
A13G A56G G73A	0.66
A13C A57G U60C U80C	0.23
A13G C14U U41C U60A	0.46
C12U C14U A20G U26A	1.21
A13G U31C U51C	0.34
A13G U41C U54C	0.83
A13G A28G A45G	0.35
A13G U31A U49C	0.34

Variant	self-cleavage
A13G A20G C37U U60C A65C U72A	0.1
C12U C39U U48C U67C	0.07
A13G U31C G33A U41A	0.07
A13G A47G U48C U66A	0.24
A13G C17U G33A A35U U72A	0.29
A13G U26A U31C U58C A65U U72C	0.08
A13G U26G U60A C81U	0.07
A13G A35G U54C G63U U67C U80C	0.11
A13G U43C U66C U67C U69A	0.21
A13G A20G G22A U54C A65G	0.05
A13G G30A C37A A47U G53A A65U	0.07
A13G U41C U67C U74C	0.17
A13G A28U A56U	0.25
A13G C39U A45U C81U	0.36
A13G A28U U31C	0.13
C12U A21G C39A U69C A77G	0.04
A13G A15G U54C	0.39
A13G U43A A47G U74A	1.26
C12U U25C A47U U51A U66C A77G	0.04
A13G A18U A47G A65U	0.14
A13C C23G C34U	0.07

Variant	self-cleavage
A13G A45G U76A C81U	0.33
A13G A35C A56G U78G C81U	0.92
A13G A28G U54G U58C C62U U72C	0.08
A13G U25G U78C	0.22
A13G A15U U25C C34U U74C	0.09
C12U A65G G70A U74C	0.51
C12U U31C C38U A45G	0.57
A13G U31A A35G U60C A65G	0.09
A13G U43C A47G	0.44
A13G A56U U58A U67A	0.13
A13G G16A A28G C62U	0.35
A13G A20G U25C	0.1
A13G U26A G30A U67A	0.23
C12U U25C A56G G73A	0.23
C12U A47G G53A U60G A75G	0.98
A13G A18U U26C U31G A45U A75G	0.22
A13G A20U C40A	0.27
C12U A64G U66A G73A U80C	0.37
A13G U26C U43C U51A	0.56
A13G U25C U78C	0.21
